Data from PubChem BioAssay AID1745853 (National Center for Advancing Translational Sciences (NCATS), 2022).
This is one part of the list. Further columns of the screen follow, without active or inactive calls.

Tests used:
Assay in all cases: Primary Screen for Target Class Profiling of Small Molecule Inhibitors of Methyltransferases
[1] = molecular target: Glycine N-methyltransferase (Homo sapiens) (UniProt Q14749); conditions: purified enzyme, MTase-Glo SAH luminescence; measured here: GNMT inhibition; at 40 µM; stronger effect = lower value
Procedure, shortened: (§1)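 Each enzyme was reacted with SAM and its substrate, with compounds tested once at 40 uM; SAH formed was read by MTase-Glo luminescence.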

[2] = molecular target: Guanidinoacetate N-methyltransferase (Homo sapiens) (UniProt Q14353); conditions: purified enzyme, MTase-Glo SAH luminescence; measured here: GAMT inhibition; at 40 µM; stronger effect = lower value
Procedure, shortened: as §1

[3] = molecular target: Histamine N-methyltransferase (Homo sapiens) (UniProt P50135); conditions: purified enzyme, MTase-Glo SAH luminescence; measured here: HNMT inhibition; at 40 µM; stronger effect = lower value
Procedure, shortened: as §1

[4] = molecular target: Nicotinamide N-methyltransferase (Homo sapiens) (UniProt P40261); conditions: purified enzyme, MTase-Glo SAH luminescence; measured here: NNMT inhibition; at 40 µM; stronger effect = lower value
Procedure, shortened: as §1

[5] = molecular target: Phenylethanolamine N-methyltransferase (Homo sapiens) (UniProt P11086); conditions: purified enzyme, MTase-Glo SAH luminescence; measured here: PNMT inhibition; at 40 µM; stronger effect = lower value
Procedure, shortened: as §1
% is scaled to controls: 0 for no effect and ±100 for the full control effect.

Row | SMILES | activity change, negative = inhibition [1] | activity change, negative = inhibition [2] | activity change, negative = inhibition [3] | activity change, negative = inhibition [4] | activity change, negative = inhibition [5]
1 | COc1cc(CNC(=O)CCCCCCC(C)C)ccc1O | -15.8% | 1.26% | -0.994% | -13.4% | 0.762%
2 | Cc1cc2[nH]c(=O)[nH]c2cc1S(=O)(=O)N1CCN(C2CCCCC2)CC1 | -0.262% | 3.56% | -22.9% | -11.2% | -9.43%
3 | CCNC(=O)Nc1ncc(-c2cc(-c3c(C)cc(OC)cc3C)nc(-c3cnccn3)n2)s1 | 0.499% | -0.808% | 3.97% | -16.2% | -6.78%
4 | CS(=O)(=O)N(Cc1ccccn1)C1CN(C(=O)Cn2c(=O)oc3ccccc32)C1 | 5.41% | 2.96% | 1.22% | 2.08% | 1.1%
5 | COc1cccc(CNC(=O)Cn2c(=O)oc3cc(S(=O)(=O)N4CC(C)CC(C)C4)ccc32)c1 (stereo unspecified) | 0.133% | 3.26% | -6.8% | -3.18% | -4.98%
6 | Cc1cccc(Cn2nc3n(CCCOC(C)C)c(=O)c4ccccc4n3c2=O)c1 | -0.578% | 0% | 11.8% | -3.54% | 2.51%
7 | N#CC[C@H](C1CCCC1)n1cc(-c2ncnc3[nH]ccc23)cn1 |  | -0.415% |  | -36.4% | -7.42%
8 | CC(=O)O[C@@H]1C2=C(O)C(=O)[C@](C)(OC(C)=O)C(=O)C2=CO[C@@]12O[C@@H](C)CC[C@H]2OC(C)=O | -2.24% | 1.02% | 6.62% | -13.5% | -11.6%
9 | Cc1ccc(Nc2ccn3c(=O)n(CC(=O)Nc4cc(F)ccc4F)nc3n2)cc1 | 7.07% | 0% | 2.73% | -3% | 1.58%
10 | CCNC(=O)N1CCCCCC1CN1CCC(C)CC1 (stereo unspecified) | -2.18% | -1.64% | 1.22% | -2.35% | -3.84%
11 | CCCn1c(=O)c2ccc(C(=O)NC3CCCCC3)cc2n2c(SCC(=O)NC3CCCC3)nnc12 | 5.28% | 0.157% | 8.3% | 7.18% | 4.55%
12 | Cc1sc2ncn(CC(=O)NCc3ccc4c(c3)OCO4)c(=O)c2c1S(=O)(=O)N1CCC(C)CC1 | -3.58% | -0.842% | -8.82% | -3.37% | -13.6%
13 | COC1=CC(=O)O/C1=C(/OC)[C@@H]1O[C@H]1c1ccccc1 | -17.8% | 2.85% | 6.26% | -10% | 2.79%
14 | CC(O)CN1CC2(CCC1=O)CCN(CCCn1ccnc1)CC2 (stereo unspecified) | 0.34% | 5.74% | -0.257% | -0.871% | -1.69%
15 | C[C@H](c1ccccc1)N1C(=O)[C@@H]2CN(C(=O)CC(C)(C)C)CCN2C1=O | -0.194% | 3.9% | 2.17% | 1.62% | 8.35%
16 | CC(C)NC(=O)O[C@@H]1CC[C@]2(C)C(CC[C@@H](O)[C@H]2CC(=O)NCc2ccco2)[C@]1(C)CO (stereo partly specified) | -5.06% | -0.306% | -0.024% | -2.39% | 2.5%
17 | CC1CCC(NC(=O)CCn2ccc3cc(S(=O)(=O)N4CCCC4)ccc32)CC1 (stereo unspecified) | 3% | 5.49% | 2.28% | 1.4% | 2.49%
18 | COC(=O)c1ncn2c1C(=O)N(Cc1ccc(OC)c(OC)c1)C(C)(C(=O)NC1CCCC1)C2 (stereo unspecified) | -3.19% | -2.09% | -1.02% | -2.56% | -2.42%
19 | O=C(C1CC1)N1CCC2(CC1)NC(=O)N(c1cccc(Cl)c1)N2 | -4.88% | -6.55% | 0.081% | -7.03% | -4.03%

Row | SMILES | activity change, negative = inhibition [1] | activity change, negative = inhibition [2] | activity change, negative = inhibition [3] | activity change, negative = inhibition [4] | activity change, negative = inhibition [5]
20 | N=c1nc(N2CCCCC2)cc(N)n1O | -3.46% | 2.17% | -22.6% | -5.03% | 5.17%
21 | O=C(CCc1nnc2n(Cc3ccc(F)cc3)c(=O)c3ccccc3n12)NC1CC1 | -15.1% | 0% | 6.95% | 7.97% | 1.01%
22 | O=C(C[C@H]1NC(=O)c2ccccc2NC1=O)Nc1ccc(N2CCCS2(=O)=O)cc1 | -3.49% | -10.5% | -0.276% | -8.55% | 1.62%
23 | C[C@H](O)c1onc(-c2ccc(F)cc2)c1C(=O)N1CCCC1 | -2.64% | -3.7% | 1.42% | -8.78% | -1.13%
24 | CN1CCN([C@H]2CCN(Cc3cccs3)C[C@H]2CCC(=O)O)CC1 | -5.3% | -8.3% | -1.93% | -7.86% | -4.39%
25 | CC(C)Cn1c(=O)c2ccc(C(=O)NC3CCCCC3)cc2n2c(=O)n(CC(=O)NC(C)C)nc12 | 11% | 3.42% | 12.6% | 7.67% | 7.17%
26 | CC(=O)N1CCCN(Cc2ccc3c(c2)OCO3)c2ccccc21 | -9.34% | -11.7% | -8.12% | -20.5% | -3.16%
27 | COc1ccc(-c2cc3n(n2)CC(C)(C(=O)NCc2ccccc2OC)N(c2cccc(Cl)c2C)C3=O)cc1 (stereo unspecified) | 4.54% | 0% | 2.05% | 6.22% | -0.999%
28 | Cc1ccc(NC(=O)c2cc3n(n2)CC(C)(C(=O)NC2CCCCC2)N(C)C3=O)cc1Cl (stereo unspecified) | -1.26% | 0.713% | -0.499% | -4.14% | -1.71%
29 | Cc1ccc(CNC(=O)c2cc3n(n2)CC(C)(C(=O)NCc2ccc(F)cc2)N(C)C3=O)cc1 (stereo unspecified) | 6.29% | 0% | 2.25% | 9.84% | 2.68%
30 | O=C(Nc1ccc(Oc2ccccc2)cc1)N[C@H]1CO[C@H]2[C@@H]1OC[C@@H]2n1nnnc1Oc1ccc(-n2cncn2)cc1 | -3.75% | -4.27% | -3.64% | -6.27% | -6.83%
31 | O=S(=O)(Nc1cccc(-c2ccc(N3CCOCC3)nn2)c1)c1cc(C(F)(F)F)ccc1Cl |  | -0.376% |  | -12.9% | 2.83%
32 | C[C@@H]1CN(c2c(F)c(F)c3c(=O)c(C(=O)O)cn(C4CC4)c3c2F)C[C@H](C)N1 | 1.58% | -5.15% | 9.69% | -7.37% | 5.37%
33 | O=C(Cc1ccc2c(c1)OCO2)N1CCOCC2(CN(Cc3ccccc3)C2)C1 | -8.34% | -13.1% | -8.39% | -19.4% | -11.7%
34 | CCCCS(=N)(=O)CCC(N)C(=O)O (stereo unspecified) | -10.2% | -2.25% | -2.11% | -12.4% | -4.89%
35 | CCOCCCNC(=O)C1(C)Cn2c(ccc2-c2ccco2)C(=O)N1c1ccc(OC)c(OC)c1 (stereo unspecified) | 2.36% | 0% | 10.4% | 13.8% | 3.82%
36 | CC(=O)O[C@H]1CC2(C)[C@@H](C[C@@H](O)[C@H]3[C@@]4(C)CC[C@@H](O)[C@@H](C)[C@@H]4CC[C@@]32C)C1=C(CCC=C(C)C)C(=O)O (stereo partly specified) | -4.37% | 5.5% | -0.924% | -7.43% | 2.05%
37 | CCOc1cc(OCC)c2c(-c3ccccc3)cc(=O)oc2c1 | -50.5% | -35.1% | -60.5% | -35.3% | -72.3%
38 | CCc1cccc(NC(=O)Cn2c(=O)oc3cc(S(=O)(=O)N4CCCCC4)ccc32)c1 | 0.196% | 0.482% | 6.95% | 1.67% | -31%
